In PubChem BioAssay AID1345083 (National Center for Advancing Translational Sciences (NCATS), 2018):
Out of some 94,000 compounds screened, about 6,200 (6.6%) were called active. Inconclusive results, whose numbers are uncertain, are shown with a selection of clear calls. Calls come from the whole dose curve; as a rule, active = well fitted inhibition curve with a large enough effect; inconclusive = small, poorly fitted or top-dose-only effect; inactive = flat fitted curve, though single readings scatter. Potencies of inconclusive entries are doubtful fits and often do not repeat.

assay: Cytotoxic Profiling in HEK 293 Cell Line of Diverse Libraries Using Quantitative High-Throughput Screening; conditions: HEK 293 viability, ATP luminescence (CellTiter-Glo), 48-72 h; series mostly up to 115 µM; note: nearly all actives have a fitted effect of over 60% in size
Summary of the method: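 250 HEK 293 cells/well; compound by pintool; incubated 48 or 72 hr at 37 degree Celsius; CellTiter-Glo added, 10 min RT, luminescence imaged.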
Potency is the fitted concentration of half-maximal effect; tags give direction and shape of the fitted curve.

Row | SMILES | Potency
1 | COc1ccc(-c2nc(C(C)C)nc3c2CCN(C(=O)Cc2ccc(F)cc2)CC3)cc1 | inconclusive: 79.4 µM [inhibitor, partial curve, poor fit]
2 | CCOc1cccc(CN2C[C@@H](COC)[C@H](C(=O)N(C)C)C2)c1 | inactive
3 | NC(=O)CN1C(=O)CO[C@H]2CN(Cc3ccc(C(F)(F)F)cc3)C[C@H]21 | inconclusive: 112 µM [inhibitor, single point]
4 | O=C(Nc1ccncc1)C1=NO[C@@H]2CN(c3ccccc3)C[C@H]12 | inconclusive: 39.8 µM [inhibitor, partial curve, poor fit]
5 | O=C(C1CC1)N1CC(Oc2ccc(-c3noc(C4CCOCC4)n3)cc2)C1 | inconclusive: 10 µM [inhibitor, full curve, poor fit]
6 | COc1ccccc1-c1nc(COC(=O)C2=CN(Cc3ccccc3)S(=O)(=O)N=C2C)no1 | inconclusive: 15.8 µM [inhibitor, full curve, poor fit]
7 | CN(C)C(=O)c1cn(C2CNC2)nn1 | inactive
8 | Cc1ccc(-c2ccc3c(n2)CN(C)C(=O)CO3)cc1 | inconclusive: 126 µM [inhibitor, partial curve, poor fit]
9 | Cc1n[nH]c(C)c1C(N)C(=O)N(C)Cc1ccnc2ccccc12 (stereo not drawn) | inconclusive: 31.6 µM [inhibitor, partial curve, poor fit]
10 | COc1cc(C)c2c(c1C)C[C@H](C(C)C(=O)NC(C)(C)C)CC2 (stereo partly drawn) | inconclusive: 63.1 µM [inhibitor, partial curve, poor fit]
11 | CC(=O)N1CCN(c2ccc3nnc(C4CC4)n3n2)CC1 | inactive
12 | O=C(Cc1ccc(Br)cc1)NCc1nnc2ccc(-c3ccccc3)nn12 | inactive
13 | COc1ccccc1NC(=O)C1c2ccccc2C(=O)N(CC(C)C)C12CCCC2 (stereo not drawn) | active: 70.8 µM
14 | O=C(c1nnc(CNC2CC2)n1-c1ccccc1)N1CCC[C@@H]1C(c1ccccc1)c1ccccc1 | inconclusive: 50.1 µM [inhibitor, partial curve, poor fit]
15 | COc1cccc(CN2CC[C@H]3COC(=O)N3c3cc(F)ccc3C2)c1 | inconclusive: 50.1 µM [inhibitor, partial curve, poor fit]
16 | O=C(Cc1cccc(Cl)c1)NC1CCN(c2cc(-c3ccccc3)[nH]n2)CC1 | inconclusive: 35.5 µM [inhibitor, partial curve, poor fit]
17 | CCc1noc(CC2CCOC3(CCN(S(=O)(=O)c4cccc(OC)c4)CC3)C2)n1 (stereo not drawn) | inconclusive: 15.8 µM [inhibitor, partial curve, poor fit]
18 | CN(Cc1ccccc1)C(=O)C[C@@H]1CCNC[C@@H]1Cc1cc(CSc2ccccc2)on1 | inconclusive: 50.1 µM [inhibitor, partial curve, poor fit]
19 | N#Cc1cccc(-c2cn3c(n2)N(C(=O)c2cccs2)CCC3)c1 | inconclusive: 44.7 µM [inhibitor, partial curve, poor fit]
20 | Cc1ccc(NC(=O)N2CCC(CCNC(=O)C3CC3)CC2)cc1F | inactive
21 | COc1ccc(CN2C(=O)CO[C@H](c3ccc(NC(=O)COc4ccccc4)cc3)[C@H]2CO)cc1 | inconclusive: 50.1 µM [inhibitor, partial curve, poor fit]

Row | SMILES | Potency
22 | Cc1c(F)cccc1NC(=O)C1CN(S(=O)(=O)C2CC2)CC12CCCCC2 (stereo not drawn) | inconclusive: 50.1 µM [inhibitor, partial curve, poor fit]
23 | CC(Oc1ccc2ccccc2c1)C(=O)N(C)Cc1ccc2nsnc2c1 (stereo not drawn) | inconclusive: 89.1 µM [inhibitor, single point]
24 | Cn1ccnc1CN1CCN(Cc2cc3n(n2)CCNC3)CC1 | inactive
25 | Cc1ccc(C(=O)NC2CCN(c3cnn(CC4CC4)c(=O)c3)CC2)c(C)c1 | inconclusive: 100 µM [inhibitor, single point]
26 | Cc1ccc(CN2CCC3(Cc4ccccc4CNC3=O)C2)cc1 (stereo not drawn) | inconclusive: 79.4 µM [inhibitor, partial curve]
27 | CCOc1ccc(CC(=O)N2CCC[C@H]2c2nc(-c3ccccc3Cl)no2)cc1OCC | inconclusive: 50.1 µM [inhibitor, partial curve, poor fit]
28 | O=C(c1ccc(F)cc1)N1CCc2nc(-c3ccccc3)nc(-c3ccc(Cl)cc3)c2C1 | inconclusive: 39.8 µM [inhibitor, partial curve, poor fit]
29 | CN(Cc1cccc(O)c1)C(=O)c1cc(COc2ccccc2F)[nH]n1 | inconclusive: 89.1 µM [inhibitor, single point]
30 | O=C(NC1CCCN(c2cc(-c3ccc(F)cc3)[nH]n2)C1)c1ccccc1Cl (stereo not drawn) | inconclusive: 31.6 µM [inhibitor, full curve]
31 | Cc1ccc(-c2cc(C(=O)N3CCC(Cc4nncn4C(C)C)CC3)c3ccccc3n2)cc1C | active: 12.6 µM
32 | O=C(c1ccc2c(c1)OCO2)N1CCN(c2ccc(Cl)nn2)C(=O)C1 | inactive
33 | O=C(NC1CCN(c2cc(-c3ccc(F)cc3)[nH]n2)C1)c1cc2ccccc2[nH]1 (stereo not drawn) | inconclusive: 50.1 µM [inhibitor, partial curve, poor fit]
34 | O=C1Nc2ccccc2CC12CCN(Cc1cncs1)CC2 | inconclusive: 89.1 µM [inhibitor, partial curve]
35 | O=C1NCCOCCCN(C(=O)c2nccc3ccccc23)[C@H]2CCCC[C@@H]12 | inconclusive: 39.8 µM [inhibitor, single point]
36 | COc1cccc(C(=O)N2CCN(C(=O)c3ccc(-c4ccc(OC)nn4)cc3)CC2)c1 | inactive
37 | O=C1CCCCN1CCNc1ccc(-c2nc(-c3ccccc3F)no2)cn1 | inconclusive: 44.7 µM [inhibitor, partial curve, poor fit]
38 | C=CCNC(=O)OC1CN(CC=C)C(=O)CN([S+](=O)([O-])c2cccs2)C1 (stereo not drawn) | inactive
39 | Cc1oc2ccn(Cc3ccccc3F)c(=O)c2c1C(=O)NC(C)c1ccccc1 (stereo not drawn) | inconclusive: 50.1 µM [inhibitor, partial curve, poor fit]
40 | CN1CCN(C(=O)c2cc(-c3cc(Cl)cc(Cl)c3)nc3c2cnn3C)CC1 | inconclusive: 70.8 µM [inhibitor, partial curve]
41 | Cc1ccc(-c2cccc(CN3CCCC3C(=O)NCc3ccc(F)cc3)c2)cc1Cl (stereo not drawn) | inconclusive: 50.1 µM [inhibitor, partial curve, poor fit]
42 | CC(=O)Nc1cccc(-c2n[nH]c3c2CC(=O)N(CC2CC2)C3)c1 | inconclusive: 112 µM [inhibitor, single point]

Row | SMILES | Potency
43 | O=[S+]1([O-])c2cnccc2O[C@@H](COCc2ccccc2)CN1Cc1cccc(F)c1 | inconclusive: 79.4 µM [inhibitor, partial curve, poor fit]
44 | O=C(NCc1cccc(Cl)c1)c1cn2cc(-c3ccccc3)sc2n1 | inconclusive: 39.8 µM [inhibitor, partial curve]
45 | COc1ccccc1-c1ccc2ncn(Cc3ccccc3)c(=O)c2n1 | inconclusive: 112 µM [inhibitor, partial curve, poor fit]
46 | CC(C)NC(=O)N1CCC[C@@H](O)[C@H](NC(=O)c2ccc(OCc3ccccc3)cc2)C1 | inconclusive: 112 µM [inhibitor, partial curve, poor fit]
47 | Cc1c(-c2ccccc2)[nH]c2c(CNC(=O)c3ccc(=O)n(C)n3)cc(Cl)cc12 | active: 28.2 µM
48 | COc1ccc(Cl)cc1-c1ccc2c(c1)C(=O)N1CCN(C(=O)C3CCCCC3)C[C@@H]1C(=O)N2 | inconclusive: 44.7 µM [inhibitor, partial curve, poor fit]
49 | CCOc1ccc(C(=O)N2CCN(c3cc(-c4ccc(OC)cc4)[nH]n3)CC2)cc1 | inconclusive: 50.1 µM [inhibitor, partial curve, poor fit]
50 | CN1CCCN(S(=O)(=O)c2ccc3c(c2)CCC3)c2ccccc21 | inconclusive: 50.1 µM [inhibitor, partial curve, poor fit]
51 | COc1cccc(CN2C(=O)CCCCC2C(=O)NCCc2nc3ccccc3n2C)c1 (stereo not drawn) | inactive
52 | CC(C)NC(=O)NCCNC(=O)c1ccc(-c2cncnc2)cc1 | inactive
53 | Cn1ncc2c(C(=O)NCc3ccccc3Cl)cc(-c3ccccc3F)nc21 | inconclusive: 31.6 µM [inhibitor, full curve]
54 | CC(C)Oc1ccc(C(=O)N2CC(c3nnc(-c4ccncc4)o3)C3(CCOCC3)C2)cc1 (stereo not drawn) | inactive
55 | COCCN1C(=O)c2cccn2CC1CNC(=O)NCc1ccc(OC)cc1 (stereo not drawn) | inactive
56 | CN(CCc1ccccn1)[C@@H]1[C@H](O)[C@H](CO)O[C@@H]1CNC1CCOCC1 | inactive
57 | FC(F)(F)c1ccc(N2C3CCC2CN(Cc2ccc(-c4ccccc4)cc2)C3)cc1 | inactive
58 | O=C1CC2(CCN(C(=O)C3CCCN(C(=O)C4CC4)C3)CC2)Oc2ccccc2N1 (stereo not drawn) | inactive
59 | CS(=O)(=O)N1CCCN(Cc2ccc(F)cc2F)CCNC(=O)CC1c1ccccc1 (stereo not drawn) | inactive
60 | C#CCNC(=O)C1CCCN(c2ccnc3ccnn23)C1 (stereo not drawn) | inactive
61 | N#Cc1cccnc1-c1ccc(C(=O)N2CCC(N[S+](=O)([O-])c3cccs3)CC2)cc1 | inconclusive: 89.1 µM [inhibitor, single point]
62 | CN(c1ccccc1)c1cc(=O)c2ccnc(NCCc3ccccn3)c2o1 | inconclusive: 100 µM [inhibitor, partial curve]
63 | Cc1cc(C)cc(-c2ccc(CN3CCCC3C(=O)N3CCCC3)cc2)c1 (stereo not drawn) | inconclusive: 56.2 µM [inhibitor, partial curve, poor fit]
